# Results from PubChem BioAssay AID485360 (National Center for Advancing Translational Sciences (NCATS), 2010).
# About 1,500 (0.65%) of roughly 230,000 compounds were called active. The inconclusive results got no clear call from the source; some entries with a clear call stand among them for comparison. The call rests on the fitted dose curve; in most records, active means well fitted inhibition curve with a large enough effect; inconclusive means small, poorly fitted or top-dose-only effect; inactive means no such curve, though single readings can be large or run the other way. Potencies of inconclusive entries are doubtful fits and often do not repeat.
# Target: Lethal(3)malignant brain tumor-like protein 1 (Homo sapiens) (UniProt Q9Y468)
# Sequence of UniProt Q9Y468 (Q9Y468 whole entry, looked up): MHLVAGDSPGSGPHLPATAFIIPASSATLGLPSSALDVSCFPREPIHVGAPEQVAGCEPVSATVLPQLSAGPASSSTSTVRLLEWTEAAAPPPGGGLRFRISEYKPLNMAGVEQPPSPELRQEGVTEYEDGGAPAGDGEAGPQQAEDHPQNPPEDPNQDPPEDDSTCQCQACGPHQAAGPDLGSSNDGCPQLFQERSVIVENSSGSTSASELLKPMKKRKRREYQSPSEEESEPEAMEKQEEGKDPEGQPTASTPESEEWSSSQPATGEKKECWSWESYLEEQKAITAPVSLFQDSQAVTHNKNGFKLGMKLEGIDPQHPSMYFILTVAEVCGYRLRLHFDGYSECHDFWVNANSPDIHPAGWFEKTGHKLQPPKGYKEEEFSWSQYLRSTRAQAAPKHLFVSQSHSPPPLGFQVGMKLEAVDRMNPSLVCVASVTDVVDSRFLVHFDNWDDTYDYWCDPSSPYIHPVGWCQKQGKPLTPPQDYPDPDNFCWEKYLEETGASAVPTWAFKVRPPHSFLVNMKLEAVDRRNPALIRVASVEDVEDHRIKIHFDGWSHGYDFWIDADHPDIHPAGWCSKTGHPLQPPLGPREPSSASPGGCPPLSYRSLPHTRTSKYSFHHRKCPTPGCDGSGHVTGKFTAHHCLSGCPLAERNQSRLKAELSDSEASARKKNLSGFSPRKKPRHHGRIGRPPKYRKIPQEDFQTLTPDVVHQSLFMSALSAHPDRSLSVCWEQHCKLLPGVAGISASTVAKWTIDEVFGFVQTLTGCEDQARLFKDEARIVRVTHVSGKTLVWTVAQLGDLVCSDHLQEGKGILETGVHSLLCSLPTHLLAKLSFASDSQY
# Assay: qHTS Assay for the Inhibitors of L3MBTL1; further: nearly all actives have a fitted effect of over 60% in size
# Details: AlphaScreen L3MBTL1–H3K9me1 peptide binding; activity, negative = inhibition: at 57.1 µM (top of the series)
# Method in brief: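 AlphaScreen assay: L3MBTL1 (50 nM final) was preincubated 30 min at room temperature with biotinylated H3(1-15)K9me1 peptide (75 nM final), then 30 min with library compounds; streptavidin donor and nickel chelate acceptor beads (10 ug/mL final) added, 30 min dark.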
# On the % scale 0 is the no-effect control and ±100 the full control effect; potency means the concentration at half of the fitted maximal effect; tags describe the fitted curve by direction and shape.
SMILES,Potency,"activity, negative = inhibition"
CC(C)(O)C#Cc1ccc(C(=O)N2CCCC2C(=O)O)s1 (configuration not stated),"inconclusive: 5.01 µM [inhibitor, single point]",
CN(/N=C/c1cc(Cl)cc(Cl)c1O)c1c(Cl)cccc1[N+](=O)[O-],"inconclusive: 3.55 µM [inhibitor, partial curve]",
COc1ccccc1NC(c1cccnc1)c1ccc2cccnc2c1O (configuration not stated),"inconclusive: 39.8 µM [inhibitor, single point]",
CN1C2=CC=CC=CC2=[N+](C)C12C=CC(=[N+]([O-])[O-])C=C2[N+](=O)[O-] (configuration not stated),"inconclusive: 14.1 µM [inhibitor, single point]",
[O-]/C(=C(\C(=S)Nc1cccc2ccccc12)[n+]1ccccc1)c1ccc(Cl)s1,"inconclusive: 28.2 µM [inhibitor, single point]",
CCOC(=O)C(C(=O)OCC)c1cc(Br)c2noc3c2c1C(=O)c1ccccc1-3,"inconclusive: 6.31 µM [inhibitor, partial curve]",
CCOCCCNC(=O)c1ccc2c(=O)n(Cc3ccc(OC)cc3)c(=O)[nH]c2c1,"inconclusive: 39.8 µM [inhibitor, single point]",
COc1ccc(-c2nn(-c3ccccc3)cc2/C=N/Nc2ccccn2)cc1,"inconclusive: 39.8 µM [inhibitor, single point]",
Cc1cc(C)c2[nH]c(C(=O)Nc3ccc4c(c3)OCO4)cc2c1,"inconclusive: 28.2 µM [inhibitor, single point]",
COc1ccc(-n2c(O)c(C=Nc3ccccc3)c3ccccc3c2=O)cc1OC,inactive,
CCOC(=O)c1ccc(CC(=O)c2ccc(O)c(O)c2O)o1,"inconclusive: 0.562 µM [inhibitor, full curve]",
O=C(Nc1ccc(N2CCCCCC2)cc1)c1cccc(S(=O)(=O)N2CCOCC2)c1,"inconclusive: 31.6 µM [inhibitor, partial curve]",
S=c1[nH]c(-c2ccccc2)cs1,inactive,
CCc1cccc(CC)c1C(O)c1cccnc1 (configuration not stated),"inconclusive: 39.8 µM [inhibitor, partial curve]",
COc1ccc(Cl)cc1N1C(=O)C2CCCN2C1c1ccc(F)c(F)c1 (configuration not stated),"inconclusive: 25.1 µM [inhibitor, single point]",
CCCCCCCNC1=CC(=O)CC(c2ccco2)C1 (configuration not stated),"inconclusive: 35.5 µM [inhibitor, single point]",
COc1cc(/C=C2/C(=O)NN(c3cccc(C)c3)C2=O)cc([N+](=O)[O-])c1O,"inconclusive: 31.6 µM [inhibitor, partial curve]",
COc1ccc(OC)c(-n2c(-c3ccc(C)cc3)n[nH]c2=S)c1,inactive,
COc1ccc(CN2C3CCCC2CC(NC(=O)Nc2ccccc2C)C3)cc1 (configuration not stated),"inconclusive: 5.01 µM [inhibitor, single point]",
COC(=O)CN=Cc1c(O)n(-c2ccc(Cl)cn2)c(=O)c2ccccc12,inactive,
C[C@](N)(Cc1ccc(O)c(O)c1)C(=O)O,,inconclusive: -97.5% [inhibitor]

SMILES,Potency,"activity, negative = inhibition"
O=C(Nc1ccc(N2CCOCC2)c(Cl)c1)c1ccc(F)cc1,"inconclusive: 7.94 µM [inhibitor, partial curve]",
C#CCOCCOCCOCCNc1nc(N2CCN(C(=O)[C@H](CCC(=O)O)n3cc(C(N)CO)nn3)CC2)nc(N2CCN(C(=O)[C@H](Cc3cc4ccccc4[nH]3)n3cc(C(N)[C@H](C)CC)nn3)CC2)n1 (some centres not stated),"inconclusive: 17.8 µM [inhibitor, partial curve]",
CCOc1ccc(CSCCNC(=S)Nc2ccc(OC)cc2)cc1,inactive,
Cc1ccc(-n2c(Cc3cccn3C)nnc2SCC(=O)NCc2ccc3c(c2)OCO3)cc1,inactive,
Cc1cc(C)c2c(n1)nn1c(C)c(CCC(=O)NCc3ccco3)c(C)nc21,"inconclusive: 39.8 µM [inhibitor, single point]",
CCOC(=O)c1cnc(-c2ccc(C(F)(F)F)cn2)[nH]c1=O,"inconclusive: 39.8 µM [inhibitor, single point]",
Cc1ccc(CN2CCN(C(=O)C3CCC3)CC2)cc1,"inconclusive: 7.08 µM [inhibitor, single point]",
CCOC(=O)c1c(/N=C/c2ccc(C)cc2O)sc2c1CCN(C)C2,"inconclusive: 28.2 µM [inhibitor, partial curve]",
COc1ccccc1N1C(=N)S/C(=C\c2ccc(-c3ccccc3C(=O)O)o2)C1=O,"inconclusive: 25.1 µM [inhibitor, single point]",
O=C(CCN1CCN(c2ccccc2)CC1)Nc1ccc(Cl)cc1,"inconclusive: 6.31 µM [inhibitor, single point]",
CN1CCCC(OC(=O)c2cccc(Cl)c2)C1 (configuration not stated),"inconclusive: 10 µM [inhibitor, partial curve]",
CCOc1nc(NCCC2=CCCCC2)nc(N2CCOCC2)n1,"inconclusive: 6.31 µM [inhibitor, single point]",
CCN(CC)c1cc2nonc2c2nonc12,inactive,
O=C(N/N=C/c1cccnc1)C1CCCN(S(=O)(=O)c2ccccc2)C1 (configuration not stated),"inconclusive: 4.47 µM [inhibitor, single point]",
CCOc1cc(CNn2cnnc2)cc(Cl)c1OCC(=O)NC(C)(C)C,"inconclusive: 31.6 µM [inhibitor, single point]",
O=C(CCc1ccc(Oc2cc([N+](=O)[O-])cc([N+](=O)[O-])c2)cc1)N1CCCCCC1,"inconclusive: 39.8 µM [inhibitor, single point]",
Cc1c(CN2CCC(CO)(CCOc3ccccc3)CC2)[nH]c2c(Cl)cccc12,"inconclusive: 28.2 µM [inhibitor, partial curve]",
O=C(COc1ccccc1-c1ccccc1)N/N=C/c1cccc2ccccc12,inactive,
CC1CCCN(c2nc(N(C)c3ccccc3)nc(N)c2[N+](=O)[O-])C1 (configuration not stated),inactive,
O=C(O)/C=C\C(=O)Nc1ccc(N2CCN(c3ccc(Cl)cc3)CC2)cc1,"inconclusive: 25.1 µM [inhibitor, partial curve]",
Cc1cccc(NC(=O)CN2C(=O)S/C(=C\c3cc(C)n(C)c3C)C2=O)c1,inactive,
